Data on 94 compounds can be found in PubChem BioAssay AID1508642 (National Center for Advancing Translational Sciences (NCATS), 2021).

Molecules are shown by their SMILES. About 200 (0.47%) of roughly 43,000 compounds were called active. About 12% were inconclusive and are not listed. Calls come from the whole dose curve; as a rule, active = well fitted cell-killing curve with a large enough effect; inconclusive = small, poorly fitted or top-dose-only effect, or effect the other way; inactive = flat fitted curve, though single readings scatter. This is one part of the list.
% is set by controls: 0 for no effect and ±100 for the full control effect.

A short description of this test: Cell viability qHTS assay in S16 Pmp22-F2sN cells. Note: nearly all actives have a fitted effect of over 65% in size. The following applies: S16 Pmp22-F2sN Schwann cells (luciferase reporters placed in the Pmp22 gene) viability, CellTiter-Glo, 24 h; series mostly up to 57.5 µM; activity change, negative = cytotoxicity: at the top concentration. The method in brief: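 S16 Schwann cells carrying the Pmp22-F2sN reporter, seeded in 1536-well format, were exposed to library compounds for 24 h at 37C. Viability was read as CellTiter-Glo luminescence after 15 min at room temperature.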
(In general: qHTS replaces the single test concentration by a dilution series.)
Take `COc1ccccc1C(=O)CC1(O)C(=O)N(CC(N)=O)c2ccccc21` (centres undefined): the “activity change, negative = cytotoxicity” value is inactive: 3.54%.
The same measure for `CCC(=O)N1CCc2cc(S(=O)(=O)NC(Cc3ccccc3)C(=O)Nc3ccc(Cl)cc3)ccc21` (centres undefined): inactive: -14.7%; for `COc1ccccc1C(=O)N1CCC(c2c[nH]c3ccccc23)(c2c[nH]c3ccccc23)CC1`: inactive: -2.87%.
In the case of `O=C(CSc1nc(-c2ccccc2)[nH]c1-c1ccc(F)cc1)NC1CCCC1`, the “activity change, negative = cytotoxicity” value is inactive: -18%.
For `CCCC(=O)Nc1c(C(=O)N2CCN(c3ccccc3)CC2)oc2ccccc12` the value was inactive: -0.714%.
For `CC(C)c1ccc(S(=O)(=O)Nc2cc3c(cc2NCc2ccccc2)n(C)c(=O)n3C)cc1` the value was inactive: -24.9%; for `O=C(CN1C(=O)COc2ccc(S(=O)(=O)N3CCCCCC3)cc21)N1CCN(c2cccc(Cl)c2)CC1`, inactive: 13%; for `CC(C)(C)OC(=O)N1CCC(c2c(C(=O)O)cnn2-c2ccc(F)cc2F)CC1`, inactive: 1.08%.
The same measure for `CCN1CCN(C(c2ccc(Cl)cc2)c2c(O)cc(C)n(CCOC)c2=O)CC1` (centres undefined): inactive: -0.137%; for `O=C(CSc1ncc(S(=O)(=O)c2ccc(Br)cc2)c(=O)[nH]1)NCc1ccccc1Cl`: inactive: -6.38%.
For the compound `Cc1nc2ncnn2c(C)c1CCC(=O)NCc1ccc(Cl)cc1`, the “activity change, negative = cytotoxicity” value is inactive: 2.45%.
With `Cc1ccc(OCCSc2nc3ccccc3n2CCC(=O)O)cc1C`, the “activity change, negative = cytotoxicity” value is inactive: 6.87%.
The same measure for `CCOc1ccc(NC(=O)NC(CC)Cn2nnc3ccccc3c2=O)cc1` (centres undefined): inactive: 0.614%.
For `COc1ccc(/C=C(\NC(=O)c2ccccc2)C(=O)NC2CCCCC2)cc1` the value was inactive: -1.75%; for `CCCCn1cnc2cc(NC(=O)c3cc(OC)c(OC)c(OC)c3)ccc21`, inactive: -0.268%.
The same measure for `Cc1cc(C)cc(N(CC(=O)Nc2ccc(C(F)(F)F)cc2)S(=O)(=O)c2c(C)[nH]c(=O)[nH]c2=O)c1`: inactive: 3.74%; for `COc1ccc(-c2cc(C(=O)Oc3ccc(Cl)cc3)c3ccccc3n2)cc1`: inactive: -12.7%.
As to `Cc1cccc(C)c1NC(=O)C1CCN(S(=O)(=O)c2cccc3nsnc23)CC1`, the “activity change, negative = cytotoxicity” value was inactive: 13.9%.
The same measure for `COc1cc(Cl)c(C)cc1NC(=O)CSCc1nc(-c2ccc(OC)c(OC)c2)no1`: inactive: 7.38%; for `Cn1c(NCc2ccccc2F)nc2ccccc21`: inactive: 12.2%.
For `Cc1ccc(C)c(Cn2cc(CCC(=O)NC3CCCCC3)c3ccccc32)c1` the value was inactive: 18.3%; for `Cc1ccc(-n2ncc3c(Nc4ccc5c(c4)OCCO5)ncnc32)cc1C`, inactive: -5.04%.
The same measure for `COc1ccc(CNC(=O)c2cnn(-c3ccc(C)cc3)c2C2CCN(C(=O)OC(C)(C)C)CC2)cc1`: inactive: -6.38%; for `Cc1ccc(NC(=O)Cn2ccn(Cc3ccc(Cl)cc3)c(=O)c2=O)cc1C`: inactive: -0.615%.
`CCOC(=O)C1CCN(C(=O)c2ccc3c(c2)sc2nc(-c4ccc(OCC)cc4)cn23)CC1`: the “activity change, negative = cytotoxicity” value is inactive: 8.55%.
Turning to `COc1ccc(-c2nc(SCC(=O)NC3CCCC3)c(-c3ccccc3)[nH]2)cc1OC`, the “activity change, negative = cytotoxicity” value is inactive: -1.65%.
For `CC(=O)c1cccc(-n2c(CCC(=O)O)ccc2-c2ccccc2)c1` the value was inactive: 22.6%.
For `COc1ccc(OC)c(Nc2cc(C(=O)NCc3ccccc3)c3ccccc3n2)c1` the value was inactive: 13.8%; for `Cc1ccc(NC(=O)CC2Sc3ccccc3NC2=O)c(C)c1` (centres undefined), inactive: -0.605%; for `CCOC(=O)c1ccc(-c2ccc(/C=C(\C#N)C(=O)Nc3cccc(C)c3)o2)cc1`, inactive: 3.3%.
The same measure for `C=Cc1ccc(CSc2nc(-c3ccc(Cl)cc3)nc3c2Cc2c(CO)cnc(C)c2O3)cc1`: inactive: 6.26%; for `CCN1C(C(=O)c2ccccc2)=C(OC(=O)c2ccc(Cl)cc2)c2ccccc2S1(=O)=O`: inactive: -7.21%.
Take `CCc1ccc2oc(-c3cccc(NC(=O)c4ccc(-c5cccc([N+](=O)[O-])c5)o4)c3)nc2c1`: the “activity change, negative = cytotoxicity” value was inactive: 27.6%.
For `CCOc1ccc(Br)cc1C1C(C(=O)Nc2ccccc2OC)=C(C)Nc2nnnn21` (centres undefined) the value was inactive: -7.02%.
For `Cc1cccc(OC(C)C(=O)N2CCC(c3nc4ccccc4o3)CC2)c1C` (centres undefined) the value was inactive: -1.83%; for `CCOc1ccc(NCc2cccn2-c2nnc(N3CCC(C(=O)NC(C)c4ccccc4)CC3)s2)cc1` (centres undefined), inactive: -29.2%; for `COc1ccc(-c2cc(C(F)(F)F)nc(NCc3ccccc3)n2)cc1OC`, inactive: 22.1%.
The same measure for `COc1cccc(CN2c3ccccc3-c3nc(SCC(=O)Nc4cccc(C)c4)ncc3S2(=O)=O)c1`: inactive: 11.5%.
As for `CC1CCc2c(sc3nnn(CC(=O)Nc4cccc(C(F)(F)F)c4)c(=O)c23)C1` (centres undefined), the “activity change, negative = cytotoxicity” value was inactive: -2.5%.
The same measure for `COc1ccc(-n2c(=O)c3c4c(sc3n(Cc3ccccc3)c2=O)CCC4)c(OC)c1`: inactive: -16.1%; for `CCn1c(=O)c(=O)n(CC)c2cc(N3CCCCC3)c(NC(=O)c3cccc(OC)c3)cc21`: inactive: 14.8%; for `Cc1oc(-c2ccc(C(=O)N(C)Cc3ccccc3)cc2)nc1CN1CCc2ccccc21`: inactive: -4.93%.
For `CCOC(=O)c1cccc(NC(=O)N2Cc3ccccc3Oc3ncccc32)c1` the value was inactive: -2.98%.
The same measure for `CC(=O)N1c2ccc(S(=O)(=O)NCCc3cccc(C)c3)cc2CC1C` (centres undefined): inactive: -9.11%.
As for `COc1ccc(N2CCN(CC(O)COc3ccc(C)c(C)c3)CC2)cc1` (centres undefined), the “activity change, negative = cytotoxicity” value was inactive: -1.91%.
For `CCOc1cccc(NC(=O)CSc2ncc(-c3ccc(Cl)cc3)[nH]2)c1` the value was inactive: 3.29%; for `Cc1ccccc1NC(=O)CSc1ncc2c(n1)-c1ccccc1N(C)S2(=O)=O`, inactive: 0.262%; for `Cc1cn2c(=O)cc(COC(=O)c3cccc(NC(=O)C(C)Oc4ccccc4)c3)nc2s1` (centres undefined), inactive: -5.47%.
As for `Cc1cc(C)c2c(n1)nn1c(C)c(CCC(=O)Nc3ccc(C)c(Cl)c3)c(C)nc21`, the “activity change, negative = cytotoxicity” value is inactive: 2.35%.
The same measure for `CCOc1ccccc1NC(=O)c1c(NC(=O)C(C)Oc2cccc(Cl)c2)sc2c1CCCCC2` (centres undefined): inactive: 10.7%; for `CCSC1=NC2(CCN(C(=O)NC3CCCCC3)CC2)N=C1c1ccc(C)cc1`: inactive: -16%.
For `Cc1cc(S(=O)(=O)Nc2cc3c(cc2C)n(C)c(=O)c(=O)n3C)ccc1F` the value was inactive: 6.44%; for `COc1ccc(Nc2cc(C(=O)NCCCN(C)Cc3ccccc3)c3ccccc3n2)cc1OC`, inactive: -29.9%.
For `COc1ccc(-n2nc3cc(C)c(NC(=O)COc4cccc(C)c4)cc3n2)cc1` the value was inactive: 10.8%; for `COc1cccc(CNC(=O)C(=O)NCC(c2cccs2)S(=O)(=O)c2cccs2)c1` (centres undefined), inactive: 0.304%.
For `COc1cccc(OCc2nc3ccccc3n2Cc2ccccc2)c1`, the “activity change, negative = cytotoxicity” value was inactive: -3.39%.
For `CCn1c(Oc2ccc(F)cc2F)nc2c1c(=O)n(C)c(=O)n2C` the value was inactive: -15.4%; for `CCOc1ccc(CC(=O)Nc2c(C(=O)c3ccc(Cl)cc3)oc3ccccc23)cc1OCC`, inactive: 5.3%; for `CC1=C(C(=O)Nc2ccc(Cl)cc2)C(c2cccs2)n2nc(SCc3cccc(Cl)c3)nc2N1` (centres undefined), inactive: 2.6%.
For `Cc1cccc(S(=O)(=O)c2cn(Cc3ccccc3)c3cc(N4CCC(C)CC4)c(F)cc3c2=O)c1` the value was inactive: 6.76%.
For `CCC1=Nc2cc(C(=O)NCCc3ccccc3)ccc2Sc2ccc(Cl)cc21` the value was inactive: -8.13%; for `CCc1cc2c(cc3c(=O)n(CC(=O)NCc4cccc(Cl)c4)nc(CC)n32)s1`, inactive: 3.06%; for `CCC(CC)C(=O)Nc1cccc(-c2nc3cccnc3s2)c1`, inactive: -7.35%.
Take `COc1cccc(COC(=O)c2nn(-c3ccccc3)nc2N)c1`: the “activity change, negative = cytotoxicity” value was inactive: 8.37%.
For `Cc1ccc(CNC(=O)C2CCN(c3nn4cc(-c5ccc(F)cc5)nc4s3)CC2)cc1` the value was inactive: -0.203%; for `COc1ccc(C(=O)NCC(c2cccnc2)N2CCc3ccccc3C2)cc1` (centres undefined), inactive: -2.91%; for `CCN(CC)c1ccc(NC(=O)CCS(=O)(=O)c2cccc3nsnc23)c(C)c1`, inactive: 3.07%.
For `CCOC(=O)c1[nH]c(C)c(CCC(=O)Nc2cc(Cl)ccc2C)c1C` the value was inactive: -3.02%.
Turning to `CNC(=O)C1CCC(Cn2c(=O)c3sccc3n(Cc3ccccc3)c2=O)CC1` (centres undefined), the “activity change, negative = cytotoxicity” value was inactive: 4.93%.
For `Cc1csc2nc(COC(=O)c3ccccc3NC(=O)c3ccccc3Cl)cc(=O)n12` the value was inactive: -20.3%.
For `COc1ccccc1CCNC(=O)c1cc2c(=O)n3cccc(C)c3nc2n1C` the value was inactive: 22.9%; for `CCOc1ccc(-c2nc(Cn3c(=O)cc(-c4ccccc4)c4c(C)nn(C)c43)c(C)o2)cc1OC`, inactive: 11.8%; for `COCCn1c(C)cc(O)c(C(c2ccccc2)N2CCN(c3ccc(F)cc3)CC2)c1=O` (centres undefined), inactive: 6.01%.
For `Cc1ccc(N(C)C(=O)Cn2nc(Cc3ccncc3)c3ccccc3c2=O)cc1C` the value was inactive: 3.41%; for `COC(=O)c1c(SC)nc2ccccc2c1OCc1cccc(C)c1`, inactive: -5.64%; for `O=C(NCCc1ccc(Cl)cc1)c1ccc(CS(=O)(=O)Cc2ccc(F)cc2)o1`, inactive: -2.88%.
On to `O=C(Nc1ccc(F)cc1)c1ccc(-n2cnc3cccnc32)cc1`, for which the “activity change, negative = cytotoxicity” value is inactive: 1.36%.
In the case of `CCCC(=O)N(c1ccc2oc3c(c2c1)CCCC3)S(=O)(=O)c1ccc(CC)cc1`, the “activity change, negative = cytotoxicity” value is inactive: -1.04%.
For `O=c1c(S(=O)(=O)c2ccccc2)cn(Cc2ccc(F)cc2)c2cc(N3CCCC3)c(F)cc12` the value was inactive: -0.697%.
For `Cc1ccc(OCc2cc(=O)n3c4c(sc3n2)CCCC4)c(C)c1` the value was inactive: 11.8%.
The same measure for `COc1cccc(CNC(=O)C2CCC(CNS(=O)(=O)c3cccs3)CC2)c1` (centres undefined): inactive: 1.33%; for `COc1ccc(NCc2nc3ccccc3n2CCOc2ccccc2C)cc1`: inactive: -22.9%.
Regarding `Cc1ccccc1NC(=O)c1ccc(NC(=O)N2CCSc3ncccc32)cc1`, the “activity change, negative = cytotoxicity” value was inactive: 3.28%.
For `COc1cccc(NC(=O)c2sc(-n3nc(C)c(Cc4ccccc4Cl)c3C)nc2C)c1` the value was inactive: 0.121%; for `CC1CCN(S(=O)(=O)c2ccc3c(c2)N(CC(=O)NCc2ccccc2Cl)C(=O)CO3)CC1`, inactive: 17.4%; for `COc1ccc(OC)c(-n2c(=O)[nH]c3cc(C(=O)NCCc4ccc(OC)c(OC)c4)ccc3c2=O)c1`, inactive: 5.75%.
With `Cc1ccccc1C(=O)Nc1cccc(-c2nc3cccnc3s2)c1`, the “activity change, negative = cytotoxicity” value was inactive: 0.649%.
The same measure for `COc1ccc(C(CNC(=O)COc2cc(C)c(Cl)c(C)c2)N2CCCCC2)cc1` (centres undefined): inactive: -3.97%.
With `CCCN(CCC)C(=O)c1c[nH]c2ccc(S(=O)(=O)N(C)c3ccc(Cl)cc3)cc2c1=O`, the “activity change, negative = cytotoxicity” value was inactive: -16.3%.
In the case of `COc1ccc(Cn2ccc3nc(C)c(C(=O)Nc4ccc(OC)c(OC)c4)cc3c2=O)cc1`, the “activity change, negative = cytotoxicity” value was inactive: 0.564%.
Take `COc1cccc(N2CCN(C(=O)CCn3nc(C)c(S(=O)(=O)N4CCCC4)c3C)CC2)c1`: the “activity change, negative = cytotoxicity” value is inactive: 1.09%.
On to `O=C(CSc1nc(=O)n(Cc2ccncc2)c2c1CCC2)Nc1ccccc1`, for which the “activity change, negative = cytotoxicity” value was inactive: 5.35%.
For `CCOc1ccccc1N(C)C(=O)c1sc2nc3n(c(=O)c2c1C)CCCC3` the value was inactive: -2.08%.
The same measure for `Cc1nn(CC(=O)Nc2ccc(C(C)C)cc2)c(=O)c2c(C)n(-c3ccc(Cl)cc3)nc12`: inactive: -14.9%.
